Source: patent US20090117104A1 (published 2009)

Molecular target: T1, mutated human GLP-2R (human, UniProt O95838 1-553)
T1 chain: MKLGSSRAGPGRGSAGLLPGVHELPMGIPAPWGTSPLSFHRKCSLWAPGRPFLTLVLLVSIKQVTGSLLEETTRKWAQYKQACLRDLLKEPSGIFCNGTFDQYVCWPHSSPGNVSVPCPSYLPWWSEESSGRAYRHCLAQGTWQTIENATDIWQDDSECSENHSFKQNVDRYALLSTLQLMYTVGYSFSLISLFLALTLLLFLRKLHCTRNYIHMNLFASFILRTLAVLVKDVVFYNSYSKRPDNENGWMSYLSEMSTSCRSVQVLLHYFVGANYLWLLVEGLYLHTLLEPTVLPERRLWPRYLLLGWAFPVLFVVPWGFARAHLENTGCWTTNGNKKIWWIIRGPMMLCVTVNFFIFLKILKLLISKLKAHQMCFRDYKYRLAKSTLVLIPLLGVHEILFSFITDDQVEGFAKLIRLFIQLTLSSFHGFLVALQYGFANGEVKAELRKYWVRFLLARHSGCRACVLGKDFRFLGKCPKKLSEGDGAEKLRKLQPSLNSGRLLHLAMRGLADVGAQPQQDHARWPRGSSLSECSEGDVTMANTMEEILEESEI
Assay: cell-based or functional assay

B1: A2G GLP-2 IgG4 mimetibody (Fc fusion)
chain: HGDGSFSDEMNTILDNLAARDFINWLIQTKITDGSGGGSGTLVTVSS[in this place human IgG4 Fc with S228P F234A L235A (EU numbers)]
potency in the cAMP expression assay relative to the corresponding peptide: ~4 fold less
